Test results reported in publication PMC4336329 (PLoS ONE, 2015).
Screen size: about 310,000 compounds; about 14,000 (4.5%) showed an effect of 50% or more. Effects have a minus sign here. This is one part of the list.

Target: human ether-à-go-go-related gene (hERG) potassium channel (human, UniProt Q12809)
Test: primary screen, population patch clamp on CHO cells stably expressing hERG
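Note: peak tail current of the secondary pulse compared with the same well before compound.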

human ether-à-go-go-related gene (hERG) potassium channel, sequence (Q12809 whole entry, looked up): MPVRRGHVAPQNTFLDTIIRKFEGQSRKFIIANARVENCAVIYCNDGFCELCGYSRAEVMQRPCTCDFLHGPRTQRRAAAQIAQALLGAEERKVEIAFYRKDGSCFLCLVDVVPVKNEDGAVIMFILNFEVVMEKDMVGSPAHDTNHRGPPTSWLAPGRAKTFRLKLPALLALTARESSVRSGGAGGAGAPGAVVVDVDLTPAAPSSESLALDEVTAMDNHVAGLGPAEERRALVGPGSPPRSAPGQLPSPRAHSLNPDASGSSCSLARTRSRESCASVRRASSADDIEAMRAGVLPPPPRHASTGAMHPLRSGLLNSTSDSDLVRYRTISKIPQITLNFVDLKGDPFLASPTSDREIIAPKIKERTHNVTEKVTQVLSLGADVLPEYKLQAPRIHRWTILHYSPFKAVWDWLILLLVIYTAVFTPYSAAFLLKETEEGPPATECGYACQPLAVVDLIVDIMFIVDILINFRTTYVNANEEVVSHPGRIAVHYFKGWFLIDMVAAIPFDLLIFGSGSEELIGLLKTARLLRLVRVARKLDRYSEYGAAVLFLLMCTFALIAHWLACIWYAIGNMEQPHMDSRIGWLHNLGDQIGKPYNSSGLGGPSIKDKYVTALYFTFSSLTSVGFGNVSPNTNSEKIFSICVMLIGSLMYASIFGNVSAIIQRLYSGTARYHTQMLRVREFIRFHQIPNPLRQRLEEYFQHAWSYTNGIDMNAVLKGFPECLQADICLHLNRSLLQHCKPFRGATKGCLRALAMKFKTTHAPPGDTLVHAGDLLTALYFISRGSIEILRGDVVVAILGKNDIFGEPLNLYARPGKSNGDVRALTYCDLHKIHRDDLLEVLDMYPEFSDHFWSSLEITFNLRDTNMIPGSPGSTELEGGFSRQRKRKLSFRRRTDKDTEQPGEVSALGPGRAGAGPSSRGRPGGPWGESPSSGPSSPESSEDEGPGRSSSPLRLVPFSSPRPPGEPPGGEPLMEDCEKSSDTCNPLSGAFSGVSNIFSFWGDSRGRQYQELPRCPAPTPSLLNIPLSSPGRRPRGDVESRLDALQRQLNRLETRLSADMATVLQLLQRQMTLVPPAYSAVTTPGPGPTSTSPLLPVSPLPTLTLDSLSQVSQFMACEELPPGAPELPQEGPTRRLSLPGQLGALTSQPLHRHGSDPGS

Point of comparison: `Cc1ccc2[nH]c(=O)c(-c3noc(CC(C)C)n3)cc2c1`, “hERG current change (%, negative = inhibition) at 10uM” value -21.4%. Against it:
- COc1ccc(NC(=O)CSc2ncc(-c3ccc(F)cc3)n2Cc2ccco2)cc1 — higher, 19%
- CC(=O)NC(CC(=O)NCCOc1ccccc1F)c1ccccc1 (stereo not drawn) — higher, 8.05%
- Cc1ccc(-n2cnnn2)c2cccnc12 — higher, 5.19%
- CC1(C)CC(=O)C=C(c2cccc(Br)c2)C1 — higher, -11%
- COc1cc(/C=N/NC(=O)c2ccncc2)ccc1O.O — higher, 7.74%
- O=C(O)CCN1C(=O)NC2(CCCC2)C1=O — higher, 7.84%
- CN(C)S(=O)(=O)c1cccc(NC(=O)CN(CCO)CC(=O)Nc2cccc(S(=O)(=O)N(C)C)c2)c1 — higher, 8.52%
- COC(=O)c1c(N)sc2c1CC(C)(C)OC2 — higher, 9.11%
- COc1ccc(C(=O)NC(C)c2cc(OC)c(OC)cc2Br)cc1 (stereo not drawn) — lower, -39.7%
- CC(C)Oc1ccc(C(=O)O)cc1 — higher, 16.5%
- CCSc1nnc(Nc2ccc(C)cc2)s1 — higher, 4.51%
- COc1ccccc1C(CCNCc1ccc(N(C)C)cc1)c1ccc(OC(C)C)cc1 (stereo not drawn) — lower, -73.8%
- C#CCNC(=O)/C=C/c1ccc(C)cc1 — higher, 26.2%
- CCCOc1cccc(C2C(C(=O)c3ccco3)=C(O)C(=O)N2CCN(CC)CC)c1 (stereo not drawn) — higher, 5.55%
- O=C(CSc1nnc2n(C3CCCCC3)c(=O)c3ccccc3n12)OC1CCCCC1 — higher, -4.92%
- CCCCNC(=O)c1cc(C)nc2ccccc12 — higher, -0.46%
- CC(C)(C)c1ccc(C(=O)NC(=O)CSc2n[nH]c(N)n2)cc1 — higher, 9.1%
- O=C(Nc1ccc(S(=O)(=O)NC2=NCCCCC2)cc1)c1ccc2ccccc2n1 — higher, 20.7%
- O=C(CN1C(=O)c2ccccc2S1(=O)=O)Nc1ccc(S(=O)(=O)N2CCCCCC2)cc1 — higher, 4.32%
- Cc1ccc(C2CC(c3ccccc3C)n3nc(N)nc3N2)cc1 (stereo not drawn) — higher, -14.6%
- COCCNC(=S)N/N=C(\C)CCc1ccc2c(c1)OCO2 — higher, -11.6%
- O=S(=O)(c1ccccc1)N1CCN(C(=S)NC2CCCC2)CC1 — higher, -1.81%
- CC1CCCC(NC(=O)c2cn(C)c3ccc(S(=O)(=O)N4CCCC4)cc3c2=O)C1C (stereo not drawn) — lower, -23.2%
- O=C(CN1CCN(S(=O)(=O)c2ccc(Br)cc2)CC1)N/N=C/c1ccc(Br)s1 — higher, -17.6%
- Cn1ncc(N)c1C(=O)Nc1cccc(C(F)(F)F)c1 — higher, 1.42%
- CC1C(=O)N2CCCc3cc(NC(=O)C(=O)NCc4ccc5c(c4)OCO5)cc1c32 (stereo not drawn) — higher, -8.27%
- CC1CCCN(C(=O)COC(=O)c2cccc(NS(=O)(=O)c3ccccc3)c2)C1 (stereo not drawn) — higher, -15.1%
- CCCCN(C)Cc1c(C(=O)N2CCc3ccccc3C2)nc2ccc(Cl)cn12 — lower, -50.1%
- Cc1ccc2nc(SCC(=O)Nc3oc(C)c4c(C)n[nH]c(=O)c34)[nH]c2c1 — higher, 8.6%
- O=[N+]([O-])c1ccc(CN2CCN(c3ccc(F)cc3)CC2)o1 — higher, 13.6%
- C=C(C)Cn1c(SCCCO)nc2c1c(=O)[nH]c(=O)n2C — higher, -4.83%
- CCOc1ccc(CCNC(=O)Cn2c(-c3nonc3N)nc3ccccc32)cc1OCC — higher, -3.72%
- Cc1cccc(/C(N)=N/OC(=O)COc2ccc(Cl)cc2)c1 — higher, -1.01%
- CCC(C(=O)Nc1ccc2[nH]ncc2c1)c1ccccc1 (stereo not drawn) — higher, 17.3%
- COc1cc(/C=C/c2nc3ccccc3c(=O)[nH]2)cc(Cl)c1O — higher, 32.2%
- COc1ccc(S(=O)(=O)N2CCC(C(=O)N3CCCC3)CC2)cc1Cl — higher, -10.1%
- COc1cc(OC)c(C2Nc3cccc4cccc(c34)N2)c(OC)c1 — higher, 6.67%
- Cc1cc(C(=O)Nc2cnc3ccccc3c2)ccc1[N+](=O)[O-] — higher, 11.9%
- C/C(=C1\SC(N2CCOCC2)=NC1=O)c1ccccc1 — higher, -12.5%
- COc1cc(OC)cc(-c2nnc(NC(=O)CCS(=O)(=O)c3ccc(F)cc3)o2)c1 — higher, 7.07%
- Cc1cc(CN2CCCC(CO)(Cc3cccc(Cl)c3)C2)n[nH]1 (stereo not drawn) — lower, -43.2%
- CCNc1nc(NC(C)C)nc(N(C#N)CC(=O)OC)n1 — higher, 0.959%
- O=C(O)c1ccc(N2C(=O)c3cccc4cccc(c34)C2=O)cc1 — higher, 16.3%
- COC(=O)c1ccc2c(c1)N(C)CCS2 — higher, -7.05%
- Cc1ccc(-c2cc(C(=O)NNC(=O)c3csc(N4CCOCC4)n3)c3ccccc3n2)cc1 — higher, 15.7%
- CC(C)c1ccc(C(=O)NC(=S)NCc2cccnc2)cc1 — lower, -43.3%
- O=C(NCCCN1CCCCC1)c1ccc2c(c1)NC(=O)C(N1CCOCC1)S2 (stereo not drawn) — higher, -3.95%
- CCn1c2ccccc2c2cc(NC(=O)CNC)ccc21.O=C(O)C(=O)O — higher, -12.8%
- O=C(CCCNS(=O)(=O)c1cccc2nsnc12)NCCN1CCN(c2ccccc2F)CC1 — lower, -41.4%
- O=C(Nc1cccc(NC(=O)c2cccnc2)c1)c1cccnc1 — higher, -3.46%
- Cc1cc(C)nc(NC2=NC3CCCCC3N2)n1 (stereo not drawn) — higher, -7.62%
- Cc1cnc(C(=O)OCC(=O)NC(C)CCc2ccccc2)cn1 (stereo not drawn) — higher, 6.22%
- O=C(CNc1cc(S(=O)(=O)N2CCOCC2)ccc1N1CCCC1)NCc1ccco1 — lower, -42.8%
- CC(C)CC(=O)N1CCN(Cc2ccc(Br)cc2)CC1 — higher, -2.53%
- O=C(O)c1cc2nc(-c3cccs3)cc(C(F)(F)F)n2n1 — higher, 20.1%
- CCOc1ccc(N/C=C/C(=O)c2ccccc2)c([N+](=O)[O-])c1 — higher, 10.6%
- Cc1ccccc1NC(=S)N=Nc1c(O)n(C)c2ccc(S(=O)(=O)N3CCOCC3)cc12 — higher, -7.71%
- Cc1ccc(NC(=O)C(C)OC(=O)c2ccc(NS(=O)(=O)c3ccc(F)c(F)c3)cc2)cc1 (stereo not drawn) — higher, 13.4%
- CCOC(=O)c1ccc(NC(=O)CSC2=NC(=O)C(CC)C(=O)N2)cc1 (stereo not drawn) — higher, 10.8%
- CCOC(=O)Cc1csc(N(C)C)n1 — higher, -4.34%
- Cc1cccc(NC(=O)CN(C)S(=O)(=O)c2ccc(-c3ccc(=O)[nH]n3)s2)c1C — higher, -19.9%
- Cn1c(=O)c(=O)n(C)c2cc(S(=O)(=O)CCC(=O)NCc3ccccc3)ccc21 — higher, 20%
- O=C(COc1ccccc1)N1CCc2ccccc2C1 — higher, 10%
- OCCC#Cc1ccc(CN2CCN(C3CCCCC3)C(CCO)C2)cc1 (stereo not drawn) — higher, -0.113%
- CC(C)Cn1cnc2sc3c(c2c1=N)CCCC3 — lower, -25.2%
- CCOC(=O)c1csc(NC(=O)c2ccc(S(=O)(=O)N(CC)CC)cc2)n1 — higher, -2.57%
- O=C(CSc1nnc(NC(=O)c2cccc(Cl)c2)s1)NCC1CCCO1 (stereo not drawn) — higher, 20%
- O=C(Nc1ccccc1)N1CCc2ccccc21 — higher, -21.2%
- COCCNC(=O)c1onc(CSc2ccc(Cl)cc2)c1C(=O)O — higher, 2.74%
- CC(C)Cn1c(=O)c(CCC(=O)Nc2ccc(N3CCOCC3)cc2)nc2cc(Cl)ccc21 — higher, 7.84%
- O=C(Cc1c(F)cccc1Cl)Nc1cccnc1 — higher, 8.94%
- Cc1cc(C)n(C(=O)c2ccc(NC(=O)C3CC3)cc2)n1 — higher, 7.72%
- CC(=O)Nc1nonc1-n1nnc(C(=O)NCc2ccccc2)c1C — higher, -10.5%
- COc1ccc(CCNC(=O)Cn2c(=O)n(CCCC(=O)NCc3ccco3)c(=O)c3sccc32)cc1OC — higher, 3.98%
- CC(=O)Nc1ccc(S(=O)(=O)N(c2cccnc2)S(=O)(=O)c2ccc(NC(C)=O)cc2)cc1 — higher, -3.89%
- O=C(C1=C(O)C(=O)N(CCN2CCOCC2)C1c1ccc([N+](=O)[O-])cc1)c1cc2ccccc2o1 (stereo not drawn) — higher, 15.6%
- Nc1c(C(=O)Nn2cnnc2)cc([N+](=O)[O-])cc1[N+](=O)[O-] — higher, -2.74%
- CCCC(=O)N(c1ccccc1)C1C=CS(=O)(=O)C1 (stereo not drawn) — higher, -3.97%
- Oc1ccc(/C=N/N2CCCCC2)c(O)c1 — higher, 11%
- O=C(/C=C/c1ccccc1)NC(NC(=S)Nc1cccc(Cl)c1)C(Cl)(Cl)Cl (stereo not drawn) — higher, 3.21%
- CC(=O)NNC(=O)CN1C(=O)/C(=C/c2ccccc2)SC1=S — higher, 18.9%
- CCOC(=O)c1oc2ccc(Br)cc2c1COC(=O)C1=COCCO1 — higher, 1.47%
- CCCN(CCC)C(=O)c1ccc2c(=O)n(Cc3ccco3)c(=S)[nH]c2c1 — higher, 3.17%
- NS(=O)(=O)c1ccc(NC(=S)NC(=O)c2cccs2)cc1 — higher, 22.3%
- COc1ccc(/C=N/NC(=O)c2ccc(COc3ccccc3Cl)o2)c(OC)c1C — higher, 7.84%
- Cc1ccc(NC(=O)c2ccn(C)n2)c(Br)c1 — higher, 0.15%
- CCCCn1c(=O)[nH]c2c(oc3ccccc32)c1=O — higher, 14.2%
- Cc1ccc(-c2cc(=O)[nH][nH]2)c(C)c1 — higher, -2.12%
- COC(=O)c1ccc(CSc2nc3ccc(Cl)cc3[nH]2)o1 — higher, -17.2%
